The values below come from the supplement of paper PMC10126150.

Sequences with one replicate were seen in a single cluster, so their values are uncertain.

The subject of this data set is ATP. The data set can be described thus: switch fluorescence ratio, 500 uM ATP over buffer (Cy3 cluster intensity, sum of 5 cycles each) (fold (ratio)); higher = stronger signal-on switching upon ATP binding; sequences stand for … in TCGTCGGCAGCGTCAGATGTGTATAAGAGACAGTTTTTTTTTTTTTTTTTTTTTTTTT…TC. Conditions: aptamer strand: ATP DNA aptamer (quencher-CACCTGGGGGAGTATTGCGGAGGAAGG + anchor), 100 nM annealed; ATP concentration: 500 uM; one replicate. Put shortly: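 Clusters carrying Cy3-labelled switching strands on a modified Illumina MiSeq flow-cell were annealed to 100 nM quencher-labelled ATP aptamer and imaged in selection buffer. They were imaged again after 15 min with 500 uM ATP at 22 °C, over five buffer/ATP cycles with NaOH stripping and re-annealing in between. For each cluster, the fluorescence ratio is the summed Cy3 intensity of the target cycles divided by that of the buffer cycles, averaged per switch-domain sequence. Clusters outside 100-1000 RFU were left out.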
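Also: ATP exposure 15 min at 22 °C before imaging.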

Turning to CTGGGTGGC, the switch fluorescence ratio worked out at 0.885.
As for CAGCCGGCGG, the switch fluorescence ratio turned out to be 0.958.
For TTCCACCAAT, the switch fluorescence ratio was found to be 2.75.
Under AGGGTGGGCC stands 0.941; under ATGAAGGAAA, 1.55.
For the sequence GCGACTAGTG, the switch fluorescence ratio amounted to 0.955.
Under TATTCCAGGT stands 1.17; under ATATTGTTCG, 0.962; under ATTAGCCTTT, 1.
Under CGGGTAGAGG stands 1.
Regarding CCCCTTACAA, the switch fluorescence ratio is 1.03.
Take ACCTAGGCGT: the switch fluorescence ratio was found to be 1.03.
In the case of AGGTCGTAGG, the switch fluorescence ratio turned out to be 0.983.
As for ACGCTTAGCA, the switch fluorescence ratio came out at 1.04.
Under CATCTAAATC stands 2.06; under CACACTGTGA, 1.02; under CGGTGAGAGA, 0.978.
Take GAGGTGGAGT: the switch fluorescence ratio came out at 1.02.
Under ATACCGGTAG stands 1.03.
Under GTGAGTATCA stands 0.956; under TGAGCTACTC, 1.25; under TCAAGAACGA, 1.01.
Under CTGCGCCGAT stands 1.06; under GGCTCAAGTT, 0.991; under GGAAGCGCGA, 1.06.
For the sequence CGTTGGATCC, the switch fluorescence ratio was found to be 1.03.
Under TAGAGCCCAC stands 1.03; under TAAAATACCT, 1.43; under CGGTGCGCCT, 1.02.
For the sequence AGAAGACTGG, the switch fluorescence ratio is 1.03.
Under CTGTGCCGAC stands 1.05; under TTAGGTGGTA, 0.955; under ATTGTACTG, 1.12.
Take CCGCGAGGCT: the switch fluorescence ratio was 3.72.
For ACTGGCTCTG, the switch fluorescence ratio worked out at 1.
Under TTTATACAGA stands 0.997.
Consider AATGTGCCCT, for which the switch fluorescence ratio amounted to 0.973.
Under TAGGAGAGTC stands 1.02; under CCTGTACCGC, 2.39; under ACAAGGTGCG, 1.08.
Under ACCGGTCAAG stands 0.998; under TCTCTGATTC, 1.03.
For TGTACAAGGC, the switch fluorescence ratio came out at 1.06.
Under CTGAGCTAA stands 1.46; under CGCAATCCGG, 4.21; under GGATAAACAT, 1.02.
CATGTTCTGG: the switch fluorescence ratio stood at 0.951.
TCATGGATGT: the switch fluorescence ratio was 1.02.
Under ACTTCGACCT stands 1.34; under GCTGGATCTG, 0.981; under AATATGTAGA, 0.961.
For TTGGGCGGCT, the switch fluorescence ratio came to 1.07.
In the case of ATTCTTTTTC, the switch fluorescence ratio was found to be 1.02.
For the sequence CTTTTTCCTT, the switch fluorescence ratio came to 1.03.
With AGGATGTCAG, the switch fluorescence ratio stood at 1.03.
For the sequence GCGGTCTTCG, the switch fluorescence ratio came out at 0.999.
Under TCTCTTGTGT stands 0.978; under AGGTCTTCGA, 1.07; under ACGAGCTCAG, 1.23.
Under GGTTGGGCCA stands 1.01.
Under AAGAGCCGCT stands 0.996; under CATAAGGGGC, 1.02; under AGTATCTAGG, 1.01.
Consider AATTCGAGTA, for which the switch fluorescence ratio worked out at 0.975.
Under TTAATGGCGC stands 0.976.
Regarding TAAAGGGGTC, the switch fluorescence ratio worked out at 0.95.
Under TCATCTGTCG stands 0.974; under TCCTATGTGG, 1.03.
Under ATTGGGTTCG stands 1.02.
Under TAGAGGTATC stands 1.07; under GAGATGCACC, 1.02.
Turning to TACTAGGCTC, the switch fluorescence ratio is 1.02.
With TGTCGAGGGT, the switch fluorescence ratio was found to be 0.97.
Take TTCATTACAT: the switch fluorescence ratio turned out to be 1.02.
Under AGCGAAGCTA stands 0.955; under TCCCGTGTCG, 1.05.
For TACGGACCGA, the switch fluorescence ratio worked out at 1.13.
Under CAAGGGTCTC stands 0.99; under TCTTTCAAAC, 1.1.
